Assay results: paper PMC6212790
The other results are listed elsewhere or left out. At the low end of the ranking the order means little.

The sequences below were run against T1, GST-Rok (full length) (UniProt O34857) (assay: protein binding microarray). Conditions: Rok is a gene silencer of Bacillus subtilis; high values mean tight binding; most listed sequences are background and not binding sites; double strand, one strand shown.
T1 sequence: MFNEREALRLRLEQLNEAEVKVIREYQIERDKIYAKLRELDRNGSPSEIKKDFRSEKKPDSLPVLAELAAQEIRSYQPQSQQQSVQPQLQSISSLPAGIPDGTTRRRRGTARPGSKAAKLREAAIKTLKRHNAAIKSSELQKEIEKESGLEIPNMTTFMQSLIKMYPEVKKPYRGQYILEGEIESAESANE
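Further: rank score from −0.5 (least bound) to 0.5 (best bound).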

Sequence | binding signal
CTCCATCA | -0.0646 E-score
ACCTGCCC | -0.228 E-score
CCGACAGA | 0.0273 E-score
GTAGGTGA | 0.125 E-score
ATTATCAC | 0.192 E-score
CTTTGACA | 0.0623 E-score
GTGCGTGA | -0.0424 E-score
AAGTAAAC | 0.123 E-score
AGTTCTGG | 0.103 E-score
CGAAAGTA | 0.27 E-score
CATCTCGA | -0.263 E-score
GACAAGAA | -0.281 E-score
GCTCACTA | 0.112 E-score
CAAAAGCC | -0.0574 E-score
GACTGCAC | -0.115 E-score
AAAAGAGG | -0.151 E-score
AGGCCACG | -0.142 E-score
CCAATAAG | 0.0378 E-score
AGAAAGCG | -0.0647 E-score
ACAATGAT | 0.178 E-score
GTTGACGA | -0.129 E-score
ACATATCT | 0.155 E-score

Sequence | binding signal
AAACCGTA | 0.0268 E-score
CATTCCCG | -0.0164 E-score
AAGCGGCC | -0.263 E-score
CGCAAACA | -0.121 E-score
TCATTAGA | 0.101 E-score
CGCAGAGC | -0.187 E-score
ACCTTCCT | -0.19 E-score
ATCTTAGG | -0.0663 E-score
CGTCGGAC | -0.15 E-score
AGGGTTAC | -0.233 E-score
ATCCTCGA | -0.154 E-score
AGTTCACG | 0.141 E-score
GAAGCACC | -0.296 E-score
ACGTAGAC | 0.0692 E-score
ATAGGAGC | -0.0454 E-score
CGATAGGA | -0.0285 E-score
AGGCGAAT | 0.0368 E-score
CACATTGG | 0.0247 E-score
AGTTGAAG | 0.171 E-score
GATGAGTA | 0.194 E-score
ACGACGGG | -0.308 E-score
AATTACAC | 0.291 E-score

Sequence | binding signal
ACAGTTCG | 0.0489 E-score
CTAATTAC | 0.329 E-score
GCCAACCC | -0.21 E-score
AAATGGGC | -0.113 E-score
AAAGACCA | -0.1 E-score
CGCAAGGC | -0.368 E-score
GAGATTAC | 0.224 E-score
CCACTTAA | -0.00978 E-score
GACCGGCC | -0.281 E-score
AAAGACGG | 0.129 E-score
AGCGTCCA | 0.0504 E-score
CAGTGCTA | -0.105 E-score
AAACACCT | 0.0232 E-score
GTGGAGAA | 0.0755 E-score
ATTTCTGA | 0.107 E-score
GTATACCA | 0.311 E-score
CGTTTCCA | -0.0727 E-score
TCCTTCGA | -0.154 E-score
CTACTATC | 0.323 E-score
CTTTTTCA | -0.00538 E-score
AAGCCGTA | 0.111 E-score
GGAACTTA | -0.0263 E-score

Sequence | binding signal
AGATATCT | 0.399 E-score
GAGCCAGC | -0.261 E-score
ACTTTTCT | 0.136 E-score
CACATAAC | 0.131 E-score
GAGTGTAC | -0.0692 E-score
ACAATTTG | 0.0563 E-score
TACAATAA | 0.169 E-score
CTTCTTTC | 0.0125 E-score
AGAACACG | 0.07 E-score
CACATGTC | -0.187 E-score
TGACAACA | 0.0107 E-score
ACACACAG | 0.143 E-score
AAATTAAT | 0.286 E-score
GGGTCTTA | -0.128 E-score
ATTAGGTG | 0.129 E-score
ACAGTCAG | -0.00727 E-score
CGCGCTCA | -0.141 E-score
GTTGCAAC | 0.244 E-score
AACGCAAT | 0.239 E-score
CAAATCTC | 0.0513 E-score
ATTTATTC | 0.219 E-score
ATATTCCC | 0.15 E-score

Sequence | binding signal
AGAAGGAT | -0.0393 E-score
CGGTGTGA | -0.0243 E-score
AGAGATTG | 0.109 E-score
GCTTACAA | -0.219 E-score
ACCGGGAG | -0.262 E-score
ATTAAGGG | -0.1 E-score
TCGACAGA | -0.126 E-score
ACCGGACC | -0.0925 E-score
CGGCCGAC | -0.231 E-score
GTCGCCAC | -0.214 E-score
GTTTTGCA | 0.0681 E-score
CCTGCTCA | -0.255 E-score
AGAGGATG | -0.0517 E-score
CATATGCC | -0.00343 E-score
ATTGTCCC | -0.301 E-score
ACACTAAT | 0.316 E-score
CGGTTACG | -0.0301 E-score
CGACCGAC | -0.259 E-score
CCAGCTTC | -0.249 E-score
GTGTTGGA | 0.0672 E-score
AATGCCTA | -0.0482 E-score
